Consider 31 molecules from article PMC9911399, “Two distinct binding modes provide the RNA-binding protein RbFox with extraordinary sequence specificity”.

Residue numbers refer to the chain shown, from its start. This is one part of the list.

The chains are these.
T1: RBFOX1 RRM RbFoxmut (Fox-RRM*) (Homo sapiens, UniProt Q9NWB1 109-208, R118D;E147R;N151S;E152T)
T1 sequence: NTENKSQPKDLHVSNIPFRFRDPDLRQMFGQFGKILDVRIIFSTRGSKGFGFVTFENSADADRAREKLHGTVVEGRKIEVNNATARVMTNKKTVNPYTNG

B1: ACUAUCA (DNA:RNA)
RNA: GGGAGACCGGAAUUCAGAUUGUCCACUAUCAUUAAAUCCCGUCGUAGCCACCA
DNA 1: CAATCTGAATTCCGGTCTCCC
DNA 2: TGGTGGCTACGACGGGATT
B2: CUUAAGA (DNA:RNA)
RNA: B1 RNA with A25C, C26U, U29A, C30G
DNA 1: CAATCTGAATTCCGGTCTCCC
DNA 2: TGGTGGCTACGACGGGATT
B3: CUAUCCC (DNA:RNA)
RNA: B1 RNA with A25C, C26U, U27A, A28U, U29C, A31C
DNA 1: CAATCTGAATTCCGGTCTCCC
DNA 2: TGGTGGCTACGACGGGATT
B4: GAAAGGA (DNA:RNA)
RNA: B1 RNA with A25G, C26A, U27A, U29G, C30G
DNA 1: CAATCTGAATTCCGGTCTCCC
DNA 2: TGGTGGCTACGACGGGATT
B5: CCUUGUG (DNA:RNA)
RNA: B1 RNA with A25C, A28U, U29G, C30U, A31G
DNA 1: CAATCTGAATTCCGGTCTCCC
DNA 2: TGGTGGCTACGACGGGATT
B6: CUACUGC (DNA:RNA)
RNA: B1 RNA with A25C, C26U, U27A, A28C, C30G, A31C
DNA 1: CAATCTGAATTCCGGTCTCCC
DNA 2: TGGTGGCTACGACGGGATT
B7: AUCGGUU (DNA:RNA)
RNA: B1 RNA with C26U, U27C, A28G, U29G, C30U, A31U
DNA 1: CAATCTGAATTCCGGTCTCCC
DNA 2: TGGTGGCTACGACGGGATT
B8: AAAUAUU (DNA:RNA)
RNA: B1 RNA with C26A, U27A, A28U, U29A, C30U, A31U
DNA 1: CAATCTGAATTCCGGTCTCCC
DNA 2: TGGTGGCTACGACGGGATT
B9: CAAGAGC (DNA:RNA)
RNA: GGGAGACCGGAAUUCAGAUUGUCCCAAGAGCUUAAAUCCCGUCGUAGCCACCA
DNA 1: CAATCTGAATTCCGGTCTCCC
DNA 2: TGGTGGCTACGACGGGATT
B10: UACACUU (DNA:RNA)
RNA: B1 RNA with A25U, C26A, U27C, U29C, C30U, A31U
DNA 1: CAATCTGAATTCCGGTCTCCC
DNA 2: TGGTGGCTACGACGGGATT
B11: CCGAGAA (DNA:RNA)
RNA: B1 RNA with A25C, U27G, U29G, C30A
DNA 1: CAATCTGAATTCCGGTCTCCC
DNA 2: TGGTGGCTACGACGGGATT
B12: UGGUGCC (DNA:RNA)
RNA: B1 RNA with A25U, C26G, U27G, A28U, U29G, A31C
DNA 1: CAATCTGAATTCCGGTCTCCC
DNA 2: TGGTGGCTACGACGGGATT
B13: AGGCAGU (DNA:RNA)
RNA: B9 RNA with C25A, A26G, A27G, G28C, C31U
DNA 1: CAATCTGAATTCCGGTCTCCC
DNA 2: TGGTGGCTACGACGGGATT
B14: GCACCCA (DNA:RNA)
RNA: B1 RNA with A25G, U27A, A28C, U29C
DNA 1: CAATCTGAATTCCGGTCTCCC
DNA 2: TGGTGGCTACGACGGGATT
B15: UAUUCGU (DNA:RNA)
RNA: B9 RNA with C25U, A27U, G28U, A29C, C31U
DNA 1: CAATCTGAATTCCGGTCTCCC
DNA 2: TGGTGGCTACGACGGGATT
B16: UCAAAUC (DNA:RNA)
RNA: B9 RNA with C25U, A26C, G28A, G30U
DNA 1: CAATCTGAATTCCGGTCTCCC
DNA 2: TGGTGGCTACGACGGGATT
B17: CUUGUUU (DNA:RNA)
RNA: B1 RNA with A25C, C26U, A28G, C30U, A31U
DNA 1: CAATCTGAATTCCGGTCTCCC
DNA 2: TGGTGGCTACGACGGGATT
B18: GGCCUAA (DNA:RNA)
RNA: B1 RNA with A25G, C26G, U27C, A28C, C30A
DNA 1: CAATCTGAATTCCGGTCTCCC
DNA 2: TGGTGGCTACGACGGGATT
B19: ACUUGGG (DNA:RNA)
RNA: B1 RNA with A28U, U29G, C30G, A31G
DNA 1: CAATCTGAATTCCGGTCTCCC
DNA 2: TGGTGGCTACGACGGGATT
B20: UUGAUAC (DNA:RNA)
RNA: B1 RNA with A25U, C26U, U27G, C30A, A31C
DNA 1: CAATCTGAATTCCGGTCTCCC
DNA 2: TGGTGGCTACGACGGGATT
B21: UGUAAAU (DNA:RNA)
RNA: B1 RNA with A25U, C26G, U29A, C30A, A31U
DNA 1: CAATCTGAATTCCGGTCTCCC
DNA 2: TGGTGGCTACGACGGGATT
B22: UGAUGCA (DNA:RNA)
RNA: B1 RNA with A25U, C26G, U27A, A28U, U29G
DNA 1: CAATCTGAATTCCGGTCTCCC
DNA 2: TGGTGGCTACGACGGGATT
B23: AGUCUUC (DNA:RNA)
RNA: B1 RNA with C26G, A28C, C30U, A31C
DNA 1: CAATCTGAATTCCGGTCTCCC
DNA 2: TGGTGGCTACGACGGGATT
B24: UCAGCCA (DNA:RNA)
RNA: B1 RNA with A25U, U27A, A28G, U29C
DNA 1: CAATCTGAATTCCGGTCTCCC
DNA 2: TGGTGGCTACGACGGGATT
B25: ACUACAA (DNA:RNA)
RNA: B1 RNA with U29C, C30A
DNA 1: CAATCTGAATTCCGGTCTCCC
DNA 2: TGGTGGCTACGACGGGATT
B26: GUUUAUU (DNA:RNA)
RNA: B1 RNA with A25G, C26U, A28U, U29A, C30U, A31U
DNA 1: CAATCTGAATTCCGGTCTCCC
DNA 2: TGGTGGCTACGACGGGATT
B27: CGGGCAU (DNA:RNA)
RNA: B9 RNA with A26G, A27G, A29C, G30A, C31U
DNA 1: CAATCTGAATTCCGGTCTCCC
DNA 2: TGGTGGCTACGACGGGATT
B28: ACCUCGA (DNA:RNA)
RNA: B1 RNA with U27C, A28U, U29C, C30G
DNA 1: CAATCTGAATTCCGGTCTCCC
DNA 2: TGGTGGCTACGACGGGATT
B29: CCGGAGU (DNA:RNA)
RNA: B9 RNA with A26C, A27G, C31U
DNA 1: CAATCTGAATTCCGGTCTCCC
DNA 2: TGGTGGCTACGACGGGATT
B30: GUAUGUC (DNA:RNA)
RNA: B9 RNA with C25G, A26U, G28U, A29G, G30U
DNA 1: CAATCTGAATTCCGGTCTCCC
DNA 2: TGGTGGCTACGACGGGATT
B31: GCAGCCG (DNA:RNA)
RNA: B1 RNA with A25G, U27A, A28G, U29C, A31G
DNA 1: CAATCTGAATTCCGGTCTCCC
DNA 2: TGGTGGCTACGACGGGATT

The experiment has as its target T1, RBFOX1 RRM RbFoxmut (Fox-RRM*). Nature of the experiment: EMSA; HiTS-Eq, 1 nM pool, 10 min; buffer printed only for the single-RNA assays: 10 mM Tris pH 7.5, 150 mM NaCl, 3.4 mM EDTA, 0.001% NP-40, 30 C. To be noted: tags: His6 N-terminal (pET28a); label: 5' 32P. An outline of the steps:
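Purified RbFox RRM (wild type or mutant) was equilibrated for 10 min in 50 µL with 1 nM of a 5′-radiolabelled pool of RNA with 7 randomized nucleotides, its flanks annealed to DNA oligonucleotides, across increasing protein concentrations. Free RNA was separated by 8% native PAGE, excised, reverse-transcribed, PCR-barcoded and sequenced on an Illumina HiSeq 2500. Relative association constants came from read-count changes of each variant against the control reaction, normalised to the cognate motif.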
Consider B1, for which the binding signal was 0.0809 KA relative to UGCAUGU.
Regarding B2, the binding signal was 0.097 KA relative to UGCAUGU.
On to B3, for which the binding signal is 0.0664 KA relative to UGCAUGU.
Take B4: the binding signal is 0.045 KA relative to UGCAUGU.
For the molecule B5, the binding signal was 0.155 KA relative to UGCAUGU.
As to B6, the binding signal is 0.104 KA relative to UGCAUGU.
For B7, the binding signal was 0.105 KA relative to UGCAUGU.
The result for B8 reads 0.102 KA relative to UGCAUGU; that for B9, 0.0966 KA relative to UGCAUGU.
The result for B10 reads 0.0821 KA relative to UGCAUGU.
On to B11, for which the binding signal is 0.138 KA relative to UGCAUGU.
As for B12, the binding signal is 0.257 KA relative to UGCAUGU.
Under B13 stands 0.0641 KA relative to UGCAUGU; under B14, 0.0828 KA relative to UGCAUGU.
Under B15 stands 0.1 KA relative to UGCAUGU.
Under B16 stands 0.063 KA relative to UGCAUGU; under B17, 0.0932 KA relative to UGCAUGU; under B18, 0.0594 KA relative to UGCAUGU.
On to B19, for which the binding signal is 0.0735 KA relative to UGCAUGU.
Regarding B20, the binding signal was 0.119 KA relative to UGCAUGU.
As for B21, the binding signal is 0.0668 KA relative to UGCAUGU.
Under B22 stands 0.216 KA relative to UGCAUGU; under B23, 0.125 KA relative to UGCAUGU.
Under B24 stands 0.106 KA relative to UGCAUGU.
Take B25: the binding signal is 0.0702 KA relative to UGCAUGU.
Under B26 stands 0.0945 KA relative to UGCAUGU; under B27, 0.0853 KA relative to UGCAUGU.
Under B28 stands 0.149 KA relative to UGCAUGU.
Under B29 stands 0.0907 KA relative to UGCAUGU; under B30, 0.334 KA relative to UGCAUGU; under B31, 0.0852 KA relative to UGCAUGU.
